Results published in the supplement of paper PMC4967469.

Tests used:
Test in all cases: Viability of human cancer cell lines after 72 h of drug (GDSC screen)
GNF-2 = compound: NC(=O)c1cccc(-c2cc(Nc3ccc(OC(F)(F)F)cc3)ncn2)c1 [GNF-2]; conditions: top dose 1.28 µM; top dose inferred
Description: (§1)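 Human cancer cell lines in 384-well plates, medium with 10% serum, drug for 72 h over a 256-fold dose range (nine 2-fold or five 4-fold steps up to the top dose). Adherent lines were fixed and stained with the nucleic acid dye Syto60, suspension lines read with resazurin; signal relative to control wells, capped at 0 and 100%. One two-parameter sigmoid per drug and line, fitted in a mixed model over all curves with the slope shared within a line.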

Gemcitabine = compound: Nc1ccn([C@@H]2O[C@H](CO)[C@@H](O)C2(F)F)c(=O)n1 [Gemcitabine]; conditions: top dose 1.024 µM
Description: as §1

LFM-A13 = compound: C/C(O)=C(\C#N)C(=O)Nc1cc(Br)ccc1Br [LFM-A13]; conditions: top dose 16 µM; top dose inferred
Description: as §1

TW-37 = compound: CC(C)c1ccccc1Cc1cc(C(=O)Nc2ccc(S(=O)(=O)c3ccccc3C(C)(C)C)cc2)c(O)c(O)c1O [TW-37]; conditions: top dose 5 µM
Description: as §1

AUY922 = compound: CCNC(=O)c1noc(-c2cc(C(C)C)c(O)cc2O)c1-c1ccc(CN2CCOCC2)cc1 [AUY922]; conditions: top dose 0.256 µM; top dose inferred
Description: as §1

Bicalutamide = compound: CC(O)(CS(=O)(=O)c1ccc(F)cc1)C(=O)Nc1ccc(C#N)c(C(F)(F)F)c1 [Bicalutamide]; conditions: top dose inferred
Description: as §1

KIN001-270 = compound: Cc1ccc(Nc2cc(-c3cccc(N4C(=O)c5ccccc5C4=O)c3)ncn2)cc1NS(C)(=O)=O [KIN001-270]; conditions: top dose 20 µM; top dose inferred
Description: as §1

T0901317 = compound: O=S(=O)(c1ccccc1)N(CC(F)(F)F)c1ccc(C(O)(C(F)(F)F)C(F)(F)F)cc1 [T0901317]; conditions: top dose 10.24 µM; top dose inferred
Description: as §1

MP470 = compound: S=C(NCc1ccc2c(c1)OCO2)N1CCN(c2ncnc3c2oc2ccccc23)CC1 [MP470]; conditions: top dose 20 µM; top dose inferred
Description: as §1

Nilotinib = compound: Cc1cn(-c2cc(NC(=O)c3ccc(C)c(Nc4nccc(-c5cccnc5)n4)c3)cc(C(F)(F)F)c2)cn1 [Nilotinib]; conditions: top dose 2 µM
Description: as §1

[1] = top dose 1.024 µM, screen: GDSC drug entry 150
[2] = top dose 10 µM, screen: GDSC drug entry 1502

| Cell Line | AUC (GNF-2) | IC50 (GNF-2) [nM] | AUC (Gemcitabine) | IC50 (Gemcitabine) [nM] | AUC (LFM-A13) | IC50 (LFM-A13) [nM] | AUC (TW-37) | IC50 (TW-37) [nM] | AUC (AUY922) | IC50 (AUY922) [nM] | AUC (Bicalutamide; [1]) | IC50 (Bicalutamide; [1]) [nM] | AUC (Bicalutamide; [2]) | IC50 (Bicalutamide; [2]) [nM] | AUC (KIN001-270) | IC50 (KIN001-270) [nM] | AUC (T0901317) | IC50 (T0901317) [nM] | AUC (MP470) | IC50 (MP470) [nM] | AUC (Nilotinib) | IC50 (Nilotinib) [nM] |
| --- | --- | --- | --- | --- | --- | --- | --- | --- | --- | --- | --- | --- | --- | --- | --- | --- | --- | --- | --- | --- | --- | --- |
| MONO-MAC-6 (acute myeloid leukaemia, suspension) | 0.983 | > 1280 | 0.272 | 13.8 | 0.926 | > 16000 | 0.55 | 430 | 0.594 | 29.4 | 0.978 | > 1020 | 0.95 | > 10000 | 0.887 | > 20000 | 0.905 | > 10200 | 0.878 | > 20000 | 0.943 | > 2000 |
| MPP-89 (mesothelioma, adherent) | 0.972 | > 1280 | 0.77 | 508 | 0.979 | > 16000 | 0.726 | 1690 | 0.735 | 93.4 | 0.972 | > 1020 | 0.934 | > 10000 | 0.982 | > 20000 | 0.965 | > 10200 | 0.953 | > 20000 | 0.93 | > 2000 |
| MRK-nu-1 (breast, suspension) | 0.957 | > 1280 | 0.26 | 14.2 | 0.983 | > 16000 | 0.911 | > 5000 | 0.416 | 9.59 | 0.98 | > 1020 | 0.988 | > 10000 | 0.965 | > 20000 | 0.99 | > 10200 | 0.851 | 13500 | 0.984 | > 2000 |
| MS-1 (small cell lung carcinoma, suspension) | 0.991 | > 1280 | 0.462 | 51.1 | 0.989 | > 16000 | 0.571 | 477 | 0.706 | 56.5 | 0.991 | > 1020 | 0.989 | > 10000 | 0.986 | > 20000 | 0.965 | > 10200 | 0.866 | 14700 | 0.98 | > 2000 |
| MSTO-211H (mesothelioma, adherent) | 0.991 | > 1280 | 0.782 | 386 | 0.99 | > 16000 | 0.681 | 949 | 0.991 | > 256 | 0.99 | > 1020 | – | – | 0.987 | > 20000 | 0.949 | > 10200 | 0.707 | 4480 | 0.963 | > 2000 |
| MZ1-PC (pancreas, adherent) | 0.907 | > 1280 | 0.719 | 316 | 0.955 | > 16000 | 0.579 | 540 | 0.49 | 14.9 | 0.972 | > 1020 | 0.977 | > 10000 | 0.979 | > 20000 | 0.971 | > 10200 | 0.944 | > 20000 | 0.975 | > 2000 |
| Mo-T (hairy cell leukaemia, suspension) | 0.985 | > 1280 | 0.961 | > 1020 | 0.988 | > 16000 | 0.451 | 230 | 0.634 | 37.7 | 0.988 | > 1020 | 0.977 | > 10000 | 0.946 | > 20000 | 0.949 | > 10200 | 0.492 | 1190 | 0.939 | > 2000 |
| NALM-6 (B-cell leukaemia, suspension) | 0.988 | > 1280 | 0.063 | < 4 | 0.976 | > 16000 | 0.596 | 546 | 0.363 | 7.19 | 0.982 | > 1020 | 0.979 | > 10000 | 0.932 | > 20000 | 0.889 | 8380 | 0.732 | 5020 | 0.983 | > 2000 |
| NAMALWA (Burkitt lymphoma, suspension) | 0.991 | > 1280 | 0.187 | 9.14 | 0.989 | > 16000 | 0.455 | 241 | 0.619 | 32.2 | 0.991 | > 1020 | 0.99 | > 10000 | 0.952 | > 20000 | 0.954 | > 10200 | 0.961 | > 20000 | 0.991 | > 2000 |
| NB1 (neuroblastoma, semi-adherent) | 0.954 | > 1280 | 0.718 | 284 | 0.953 | > 16000 | 0.631 | 749 | 0.772 | 109 | 0.984 | > 1020 | 0.982 | > 10000 | 0.901 | > 20000 | 0.956 | > 10200 | 0.765 | 8040 | 0.983 | > 2000 |
| NB5 (neuroblastoma, adherent) | 0.987 | > 1280 | 0.711 | 255 | 0.983 | > 16000 | 0.539 | 400 | 0.65 | 42 | 0.984 | > 1020 | 0.981 | > 10000 | 0.975 | > 20000 | 0.959 | > 10200 | 0.308 | 360 | 0.985 | > 2000 |
| NB6 (neuroblastoma, adherent) | 0.975 | > 1280 | 0.813 | 721 | 0.846 | 15900 | 0.77 | 2340 | 0.869 | > 256 | 0.96 | > 1020 | – | – | 0.933 | > 20000 | 0.98 | > 10200 | 0.911 | > 20000 | 0.977 | > 2000 |

Lines with a small IC50 respond at low doses; a fit beyond the top or the lowest dose is shown as a bound at that dose. The AUC spans the tested range (256-fold, ending at the top dose) of the same fit; values near 1 show little effect. For some assays here: Where the top dose is marked as inferred, it was derived from the fitted curves, not read from the paper. For some assays here: An entry number marks a drug with two screens in the source, which often give different values.
